Consider 22 cell lines from the supplement of paper PMC4967469.

A lower IC50 marks a more sensitive line; a limit (>, <) means that the fit lies beyond the doses tested. AUC, from the same fit, is the share of area under the viability curve across the 256-fold dose range: 1 means no effect, lower means more sensitive. An inferred top dose comes from the curve model; the source does not state it. Where only a bound is given, the exact number is not on record here.

Compound in one test: CC(C)=CC[C@@H](O)C1=CC(=O)c2c(O)ccc(O)c2C1=O [Shikonin]
As to the kind of experiment: Viability of human cancer cell lines after 72 h of drug (GDSC screen). The note with it: top dose 16 µM; top dose inferred. As to the method: (§1)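 Human cancer cell lines in 384-well plates, medium with 10% serum, drug for 72 h over a 256-fold dose range (nine 2-fold or five 4-fold steps up to the top dose). Adherent lines were fixed and stained with the nucleic acid dye Syto60, suspension lines read with resazurin; signal relative to control wells, capped at 0 and 100%. One two-parameter sigmoid per drug and line, fitted in a mixed model over all curves with the slope shared within a line.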
On to “CPC-N (small cell lung carcinoma, suspension)”, for which the AUC was determined as 0.839 and the IC50 came out at 12.5 µM.

CTB-1 (B-cell lymphoma, suspension): the AUC was 0.481 and the IC50 stood at 0.87 µM.

Turning to “CTV-1 (acute myeloid leukaemia, suspension)”, the AUC was 0.763 and the IC50 is 4.73 µM.

As to D-283MED (medulloblastoma, adherent), the AUC came out at 0.514 and the IC50 amounted to 1.09 µM.

Consider D-502MG (glioma, adherent), for which the AUC amounted to 0.729 and the IC50 came to 6.59 µM.

For DB (B-cell lymphoma, suspension), the AUC turned out to be 0.428 and the IC50 came to 0.619 µM.

In the case of DEL (lymphoid neoplasm, suspension), the AUC was 0.187 and the IC50 was determined as 0.155 µM.

Turning to DJM-1 (skin, adherent), the AUC worked out at 0.711 and the IC50 was 3.91 µM.

Take “DMS-79 (small cell lung carcinoma, suspension)”: the AUC was 0.965 and the IC50 was more than 16 µM.

Regarding DSH1 (bladder, adherent), the AUC was determined as 0.783 and the IC50 amounted to 6.42 µM.

As for DU-4475 (breast, suspension), the AUC was determined as 0.253 and the IC50 was 0.232 µM.

For the cell line EB2 (Burkitt lymphoma, suspension), the AUC turned out to be 0.285 and the IC50 is 0.265 µM.

As to EB-3 (Burkitt lymphoma, suspension), the AUC is 0.54 and the IC50 was found to be 1.31 µM.

Regarding EJM (lymphoid neoplasm, semi-adherent), the AUC was 0.488 and the IC50 was 0.931 µM.

In the case of “EM-2 (chronic myeloid leukaemia, suspension)”, the AUC was 0.49 and the IC50 amounted to 0.933 µM.

On to EW-3 (Ewing sarcoma, adherent), for which the AUC is 0.406 and the IC50 was found to be 0.531 µM.

As for EW-13 (Ewing sarcoma, suspension), the AUC was found to be 0.381 and the IC50 is 0.454 µM.

As to EW-18 (Ewing sarcoma, suspension), the AUC stood at 0.408 and the IC50 turned out to be 0.55 µM.

Turning to GCIY (stomach, adherent), the AUC turned out to be 0.221 and the IC50 turned out to be 0.135 µM.

Regarding “GDM-1 (acute myeloid leukaemia, suspension)”, the AUC worked out at 0.64 and the IC50 stood at 2.4 µM.

For the cell line “HAL-01 (lymphoblastic leukaemia, suspension)”, the AUC was 0.239 and the IC50 was found to be 0.197 µM.

HC-1 (hairy cell leukaemia, suspension): the AUC was determined as 0.751 and the IC50 came out at 5.08 µM.

Compound in another test: CCNc1cc(NC2CCC(O)CC2)nc(Nc2ccc3c(ccn3Cc3ccccc3)c2)n1 [CGP-082996 (CINK4)]
The test is described as above. Conditions: top dose 5.12 µM; top dose inferred. As to the method: as §1
For the cell line “CPC-N (small cell lung carcinoma, suspension)”, the AUC turned out to be 0.979 and the IC50 was more than 5.12 µM.

Turning to CTB-1 (B-cell lymphoma, suspension), the AUC was 0.947 and the IC50 was more than 5.12 µM.

Take “CTV-1 (acute myeloid leukaemia, suspension)”: the AUC worked out at 0.952 and the IC50 was more than 5.12 µM.

On to D-283MED (medulloblastoma, adherent), for which the AUC came out at 0.982 and the IC50 is more than 5.12 µM.

Regarding D-502MG (glioma, adherent), the AUC amounted to 0.966 and the IC50 is more than 5.12 µM.

With DB (B-cell lymphoma, suspension), the AUC is 0.91 and the IC50 was more than 5.12 µM.

For the cell line DEL (lymphoid neoplasm, suspension), the AUC was found to be 0.904 and the IC50 was 4.24 µM.

Regarding DJM-1 (skin, adherent), the AUC worked out at 0.936 and the IC50 is more than 5.12 µM.

As to “DMS-79 (small cell lung carcinoma, suspension)”, the AUC turned out to be 0.953 and the IC50 was more than 5.12 µM.

For DSH1 (bladder, adherent), the AUC was determined as 0.961 and the IC50 was more than 5.12 µM.

In the case of DU-4475 (breast, suspension), the AUC is 0.951 and the IC50 is more than 5.12 µM.

In the case of EB2 (Burkitt lymphoma, suspension), the AUC is 0.98 and the IC50 was more than 5.12 µM.

Turning to EB-3 (Burkitt lymphoma, suspension), the AUC was found to be 0.906 and the IC50 was more than 5.12 µM.

In the case of EJM (lymphoid neoplasm, semi-adherent), the AUC worked out at 0.99 and the IC50 is more than 5.12 µM.

As to “EM-2 (chronic myeloid leukaemia, suspension)”, the AUC is 0.968 and the IC50 was more than 5.12 µM.

As to EW-3 (Ewing sarcoma, adherent), the AUC was 0.984 and the IC50 is more than 5.12 µM.

EW-13 (Ewing sarcoma, suspension): the AUC worked out at 0.983 and the IC50 is more than 5.12 µM.

For EW-18 (Ewing sarcoma, suspension), the AUC was 0.981 and the IC50 was more than 5.12 µM.

For the cell line GCIY (stomach, adherent), the AUC worked out at 0.928 and the IC50 is more than 5.12 µM.

Consider “GDM-1 (acute myeloid leukaemia, suspension)”, for which the AUC is 0.872 and the IC50 was determined as 4.5 µM.

As to “HAL-01 (lymphoblastic leukaemia, suspension)”, the AUC was 0.895 and the IC50 stood at 4.95 µM.

As for HC-1 (hairy cell leukaemia, suspension), the AUC is 0.891 and the IC50 was more than 5.12 µM.

Compound in another test: COc1cc(-c2nn([C@H]3CC[C@H](N4CCN(C(C)=O)CC4)CC3)c3ncnc(N)c23)ccc1NC(=O)c1cc2ccccc2n1C [A-770041]
Described as above. Conditions: top dose 5.12 µM; top dose inferred. The method, then: as §1
Take “CPC-N (small cell lung carcinoma, suspension)”: the AUC was 0.954 and the IC50 is more than 5.12 µM.

With CTB-1 (B-cell lymphoma, suspension), the AUC turned out to be 0.842 and the IC50 was more than 5.12 µM.

As for “CTV-1 (acute myeloid leukaemia, suspension)”, the AUC is 0.019 and the IC50 was less than 0.02 µM.

Turning to D-283MED (medulloblastoma, adherent), the AUC was 0.962 and the IC50 is more than 5.12 µM.

D-502MG (glioma, adherent): the AUC was 0.965 and the IC50 is more than 5.12 µM.

For the cell line DB (B-cell lymphoma, suspension), the AUC worked out at 0.983 and the IC50 is more than 5.12 µM.

For the cell line DEL (lymphoid neoplasm, suspension), the AUC is 0.944 and the IC50 was more than 5.12 µM.

Regarding DJM-1 (skin, adherent), the AUC was 0.988 and the IC50 is more than 5.12 µM.

With “DMS-79 (small cell lung carcinoma, suspension)”, the AUC came out at 0.971 and the IC50 is more than 5.12 µM.

In the case of DSH1 (bladder, adherent), the AUC amounted to 0.953 and the IC50 was more than 5.12 µM.

Consider DU-4475 (breast, suspension), for which the AUC is 0.963 and the IC50 is more than 5.12 µM.

EB2 (Burkitt lymphoma, suspension): the AUC came to 0.967 and the IC50 was more than 5.12 µM.

Turning to EB-3 (Burkitt lymphoma, suspension), the AUC worked out at 0.833 and the IC50 stood at 4.08 µM.

Take EJM (lymphoid neoplasm, semi-adherent): the AUC was found to be 0.991 and the IC50 was more than 5.12 µM.

On to “EM-2 (chronic myeloid leukaemia, suspension)”, for which the AUC came out at 0.569 and the IC50 stood at 0.507 µM.

As to EW-3 (Ewing sarcoma, adherent), the AUC came out at 0.984 and the IC50 is more than 5.12 µM.

For the cell line EW-13 (Ewing sarcoma, suspension), the AUC amounted to 0.981 and the IC50 was more than 5.12 µM.

Turning to EW-18 (Ewing sarcoma, suspension), the AUC came out at 0.967 and the IC50 was more than 5.12 µM.

Turning to GCIY (stomach, adherent), the AUC was 0.773 and the IC50 worked out at 2.25 µM.

Regarding “GDM-1 (acute myeloid leukaemia, suspension)”, the AUC was 0.945 and the IC50 is more than 5.12 µM.

As for “HAL-01 (lymphoblastic leukaemia, suspension)”, the AUC is 0.826 and the IC50 came out at 2.64 µM.

For orientation: IC50 means the concentration that gives 50% inhibition.
